Paper PMC4336329 (PLoS ONE, 2015)
The campaign covered roughly 310,000 compounds. About 14,000 (4.5%) showed an effect of 50% or more. Effects have a minus sign here. The list shows a part of the results.

target: human ether-à-go-go-related gene (hERG) potassium channel (human, UniProt Q12809); assay: primary screen, population patch clamp on CHO cells stably expressing hERG
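Further: peak tail current of the secondary pulse compared with the same well before compound.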

human ether-à-go-go-related gene (hERG) potassium channel, sequence (Q12809 whole entry, looked up): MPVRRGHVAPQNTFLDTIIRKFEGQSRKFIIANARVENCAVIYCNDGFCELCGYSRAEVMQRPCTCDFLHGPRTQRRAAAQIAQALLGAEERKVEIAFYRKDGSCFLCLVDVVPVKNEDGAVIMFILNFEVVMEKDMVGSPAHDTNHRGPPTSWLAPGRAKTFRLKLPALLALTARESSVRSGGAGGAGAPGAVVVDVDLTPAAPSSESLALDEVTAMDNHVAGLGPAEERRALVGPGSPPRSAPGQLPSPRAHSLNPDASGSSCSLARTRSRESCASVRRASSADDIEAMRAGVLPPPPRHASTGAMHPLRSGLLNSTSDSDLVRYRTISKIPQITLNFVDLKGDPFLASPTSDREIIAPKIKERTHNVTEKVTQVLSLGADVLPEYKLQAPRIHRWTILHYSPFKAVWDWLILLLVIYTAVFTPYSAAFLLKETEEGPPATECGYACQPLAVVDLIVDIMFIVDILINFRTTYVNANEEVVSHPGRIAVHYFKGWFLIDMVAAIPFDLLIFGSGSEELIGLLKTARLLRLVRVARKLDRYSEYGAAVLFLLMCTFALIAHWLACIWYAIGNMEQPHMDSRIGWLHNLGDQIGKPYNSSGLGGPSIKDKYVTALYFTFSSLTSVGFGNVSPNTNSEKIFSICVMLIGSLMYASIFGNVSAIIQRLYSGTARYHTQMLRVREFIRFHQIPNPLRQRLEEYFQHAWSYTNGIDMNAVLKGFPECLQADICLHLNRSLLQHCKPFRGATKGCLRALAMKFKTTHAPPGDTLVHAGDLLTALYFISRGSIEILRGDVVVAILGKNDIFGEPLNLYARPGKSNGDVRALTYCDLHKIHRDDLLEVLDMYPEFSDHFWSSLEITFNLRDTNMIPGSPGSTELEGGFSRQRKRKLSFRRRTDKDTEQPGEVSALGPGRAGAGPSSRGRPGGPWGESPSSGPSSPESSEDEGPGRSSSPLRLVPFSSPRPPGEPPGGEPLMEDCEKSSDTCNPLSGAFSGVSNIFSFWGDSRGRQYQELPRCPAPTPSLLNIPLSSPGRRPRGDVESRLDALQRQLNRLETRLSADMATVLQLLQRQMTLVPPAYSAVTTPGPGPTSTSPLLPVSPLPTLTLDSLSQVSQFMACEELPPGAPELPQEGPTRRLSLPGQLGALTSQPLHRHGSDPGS

SMILES	hERG current change (%, negative = inhibition) at 10uM
O=C(Nc1cccc(-c2cn3ccccc3n2)c1)C1CC1	-31.1%
Cc1ccccc1Cn1c(=O)n(Cc2ccco2)c(=O)c2ccccc21	2.24%
CN(C(=O)CSc1nc2ccc([N+](=O)[O-])cc2s1)C1CCS(=O)(=O)C1 (stereo not drawn)	-55.9%
COc1ccc(N2CCN(C(=O)C3=NNC(=O)CC3)CC2)cc1	-13.6%
COc1ccc(-c2cc3ccccc3n2CC(O)CN2CCC(C)CC2)cc1.O=C(O)C(=O)O (stereo not drawn)	-77%
O=C(NC(=S)Nc1ccccc1N1CCCC1)c1cccs1	7.27%
CNC(=O)c1ccc(CNC(=O)OCC(F)(F)F)cc1	-1.42%
CCCn1c(N)c(N(CCOC)C(=O)CSCC(=O)Nc2ccc(C)cc2)c(=O)[nH]c1=O	-1.05%
CCOC(=O)CSc1nnc(Cc2ccccc2)n1-c1cccc(Cl)c1	-37.3%
Cc1cc(N)ccc1N=Nc1c(C)n(C)n(-c2ccccc2)c1=O	-5.57%
COc1ccc(OC)c(C2C3=C(CCCC3=O)NC3=C2C(=O)CCC3)c1	2.04%
CC(/C=N/Nc1nc(C)cc(=O)[nH]1)=C\c1ccccc1	-41%
CCOc1cc(S(=O)(=O)N2CCN(S(=O)(=O)CC)CC2)c(OCC)cc1-n1cnnn1	13.2%
CC(C)(C)SCCNC(=O)CSCc1ccc([N+](=O)[O-])cc1	-63.1%
NC(=O)Cn1cc(/C=N\NS(=O)(=O)c2ccc(Cl)cc2)c2ccccc21	10.6%
C=CCOc1c(Br)cc(/C=N/n2c(CC)n[nH]c2=S)cc1Br	2.36%
Cc1cc(C)n(C(=O)N(c2ccccc2)c2ccccc2)n1	9.46%
Cc1ccc(OCC(=O)N/N=C\c2ccc(O)c([N+](=O)[O-])c2)c([N+](=O)[O-])c1	11.4%
CCCC(=O)Nc1nc2ccc(NC(=O)c3ccc(Br)o3)cc2s1	1.78%
CCOC(=O)N1CCN(C(=O)COC(=O)c2cc(Cl)c(O)c(Cl)c2)CC1	29.4%
Cc1cc(=O)oc2cc(NC(=O)c3cccc(F)c3)ccc12	5.32%
COc1ccc(NC(=O)CC2SC(N)=NC2=O)c([N+](=O)[O-])c1 (stereo not drawn)	19.9%
CCSc1n[nH]c2nc3c(c(=O)n12)C1(CCCC1)Cc1ccccc1-3	22.5%
O=C(NCc1ccc(Cl)cc1)C1CCCN(S(=O)(=O)c2cnc[nH]2)C1 (stereo not drawn)	9.36%
